# Assay results reported in the supplement of paper PMC8728848.
# The other results are listed elsewhere or left out.
# B1: Pbx2 (Cryptococcus neoformans) (protein)
# chain: AVSPLPSSTELVFYSQKRRRRRICSTATGSLSTPDPTRMTSDPYKRVGMRFSSVPRLLITFLSLLLLVSAAPPCVRFADYDSINQMFIDGGPGTKVLLCPNRLYRLSGPIIFTAADQEIATYGYPTGSERAVLRVEGRNTATAIQGDCRRCARVSVKNLVVDGNRKKLGRMRDFQLATGLVVLGGNEGQSIQNSWIKNPRGFTAIHIREGDKLQCSGARVEKNEIGPVGEEYDPEKDGDDPEMSPLGRPLADGVSIACRDSFIRDNTFRDNTDAAIVVYCSPGTLIHANHIFAQSLSAMAGILMVDSTPFNGDYTGTVVRSNIIDAVSRTIRVGIGIGPTVWSDDTETILTGGSVIGNGLKGRYMGYGIAAAGLKQWTIKDNWDEAKHEGRKSARCFDEPVNPDPIGLLYNRPTMEDCTVQSGFADHDFQYLVCIDGLYDKTNPPKHDPAPLAHDPSPTNAQEDNTVQQDGGDSKSKSIEQPREASDIEAEPSVEKMFSTGSEMMDDVLEHSHQRMHEVIDHLSRRIDILGAASAGKGSGDSKISEVLDPAMSSHLEKLQRKIEHLEFSLRSQIETAIQLRSAIQGWDQEMALVTDWEYDILLDVRHKLELSSYPHDQPLDPRLMRGQSYLNNEAVLVDDHSHPSLEGENLRAMSDRARLNANEEA
# Key:
# Test in all cases: glycan array binding signal (z-score within array); higher = stronger binding
# Conditions in all cases: glycan notation: IUPAC condensed, linker removed
# [1] = molecular target: Gal(b1-4)GlcNAc(b1-3)Gal(b1-4)GlcNAc(b1-2)[Gal(b1-4)GlcNAc(b1-3)Gal(b1-4)GlcNAc(b1-6)]Man(a1-6)[Gal(b1-4)GlcNAc(b1-3)Gal(b1-4)GlcNAc(b1-2)Man(a1-3)]Man(b1-4)GlcNAc(b1-4)[Fuc(a1-6)]GlcNAc
# Procedure, shortened: (§1)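 The binding signal is a Z-score computed within each array and averaged over linkers. Arrays of the same protein sequence at different concentrations or buffers were also averaged together. Data originate from 3228 arrays in the Consortium for Functional Glycomics database, kept only where the protein sequence was available.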
# [2] = molecular target: Gal(b1-4)GlcNAc(b1-3)Gal(b1-4)GlcNAc(b1-3)Gal(b1-4)GlcNAc
# Procedure, shortened: as §1
# [3] = molecular target: Gal(b1-4)GlcNAc(b1-3)Gal(b1-4)GlcNAc(b1-3)Gal(b1-4)GlcNAc(b1-2)Man(a1-3)[Gal(b1-4)GlcNAc(b1-3)Gal(b1-4)GlcNAc(b1-3)Gal(b1-4)GlcNAc(b1-2)Man(a1-6)]Man(b1-4)GlcNAc(b1-4)GlcNAc
# Procedure, shortened: as §1
# [4] = molecular target: Gal(b1-4)GlcNAc(b1-3)Gal(b1-4)GlcNAc(b1-3)Gal(b1-4)GlcNAc(b1-2)Man(a1-3)[Gal(b1-4)GlcNAc(b1-3)Gal(b1-4)GlcNAc(b1-3)Gal(b1-4)GlcNAc(b1-2)Man(a1-6)]Man(b1-4)GlcNAc(b1-4)[Fuc(a1-6)]GlcNAc
# Procedure, shortened: as §1
# [5] = molecular target: Gal(b1-4)GlcNAc(b1-3)Gal(b1-4)GlcNAc(b1-3)Gal(b1-4)GlcNAc(b1-2)[Gal(b1-4)GlcNAc(b1-3)Gal(b1-4)GlcNAc(b1-3)Gal(b1-4)GlcNAc(b1-6)]Man(a1-6)[Gal(b1-4)GlcNAc(b1-3)Gal(b1-4)GlcNAc(b1-3)Gal(b1-4)GlcNAc(b1-2)Man(a1-3)]Man(b1-4)GlcNAc(b1-4)[Fuc(a1-6)]GlcNAc
# Procedure, shortened: as §1
# [6] = molecular target: Gal(b1-4)GlcNAc(b1-3)Gal(b1-4)GlcNAc(b1-3)Gal(b1-4)GlcNAc(b1-3)Gal(b1-4)GlcNAc(b1-2)Man(a1-3)[Gal(b1-4)GlcNAc(b1-3)Gal(b1-4)GlcNAc(b1-3)Gal(b1-4)GlcNAc(b1-3)Gal(b1-4)GlcNAc(b1-2)Man(a1-6)]Man(b1-4)GlcNAc(b1-4)GlcNAc
# Procedure, shortened: as §1
# [7] = molecular target: Gal(b1-4)GlcNAc(b1-3)Gal(b1-4)GlcNAc(b1-3)Gal(b1-4)GlcNAc(b1-3)Gal(b1-4)GlcNAc(b1-2)Man(a1-3)[Gal(b1-4)GlcNAc(b1-3)Gal(b1-4)GlcNAc(b1-3)Gal(b1-4)GlcNAc(b1-3)Gal(b1-4)GlcNAc(b1-2)Man(a1-6)]Man(b1-4)GlcNAc(b1-4)[Fuc(a1-6)]GlcNAc
# Procedure, shortened: as §1
# [8] = molecular target: Gal(b1-4)GlcNAc(b1-3)Gal(b1-4)GlcNAc(b1-3)Gal(b1-4)GlcNAc(b1-3)Gal(b1-4)GlcNAc(b1-2)[Gal(b1-4)GlcNAc(b1-3)Gal(b1-4)GlcNAc(b1-3)Gal(b1-4)GlcNAc(b1-3)Gal(b1-4)GlcNAc(b1-6)]Man(a1-6)[Gal(b1-4)GlcNAc(b1-3)Gal(b1-4)GlcNAc(b1-3)Gal(b1-4)GlcNAc(b1-3)Gal(b1-4)GlcNAc(b1-2)Man(a1-3)]Man(b1-4)GlcNAc(b1-4)[Fuc(a1-6)]GlcNAc
# Procedure, shortened: as §1
# [9] = molecular target: Gal(b1-4)GlcNAc(b1-3)Gal(b1-4)GlcNAc(b1-3)Gal(b1-4)GlcNAc(b1-3)Gal(b1-4)GlcNAc(b1-3)Gal(b1-4)GlcNAc(b1-2)Man(a1-3)[Gal(b1-4)GlcNAc(b1-3)Gal(b1-4)GlcNAc(b1-3)Gal(b1-4)GlcNAc(b1-3)Gal(b1-4)GlcNAc(b1-3)Gal(b1-4)GlcNAc(b1-2)Man(a1-6)]Man(b1-4)GlcNAc(b1-4)GlcNAc
# Procedure, shortened: as §1
# [10] = molecular target: Gal(b1-4)GlcNAc(b1-3)Gal(b1-4)GlcNAc(b1-3)Gal(b1-4)GlcNAc(b1-3)Gal(b1-4)GlcNAc(b1-3)Gal(b1-4)GlcNAc(b1-2)Man(a1-3)[Gal(b1-4)GlcNAc(b1-3)Gal(b1-4)GlcNAc(b1-3)Gal(b1-4)GlcNAc(b1-3)Gal(b1-4)GlcNAc(b1-3)Gal(b1-4)GlcNAc(b1-2)Man(a1-6)]Man(b1-4)GlcNAc(b1-4)[Fuc(a1-6)]GlcNAc
# Procedure, shortened: as §1
# [11] = molecular target: Gal(b1-4)GlcNAc(b1-3)Gal(b1-4)GlcNAc(b1-3)Gal(b1-4)GlcNAc(b1-3)Gal(b1-4)GlcNAc(b1-3)Gal(b1-4)GlcNAc(b1-2)[Gal(b1-4)GlcNAc(b1-3)Gal(b1-4)GlcNAc(b1-3)Gal(b1-4)GlcNAc(b1-3)Gal(b1-4)GlcNAc(b1-3)Gal(b1-4)GlcNAc(b1-6)]Man(a1-6)[Gal(b1-4)GlcNAc(b1-3)Gal(b1-4)GlcNAc(b1-3)Gal(b1-4)GlcNAc(b1-3)Gal(b1-4)GlcNAc(b1-3)Gal(b1-4)GlcNAc(b1-2)Man(a1-3)]Man(b1-4)GlcNAc(b1-4)[Fuc(a1-6)]GlcNAc
# Procedure, shortened: as §1
# [12] = molecular target: Gal(b1-4)GlcNAc(b1-3)Gal(b1-4)GlcNAc(b1-3)Gal(b1-4)GlcNAc(b1-3)Gal(b1-4)GlcNAc(b1-3)Gal(b1-4)GlcNAc(b1-3)Gal(b1-4)GlcNAc(b1-2)Man(a1-3)[Gal(b1-4)GlcNAc(b1-3)Gal(b1-4)GlcNAc(b1-3)Gal(b1-4)GlcNAc(b1-3)Gal(b1-4)GlcNAc(b1-3)Gal(b1-4)GlcNAc(b1-3)Gal(b1-4)GlcNAc(b1-2)Man(a1-6)]Man(b1-4)GlcNAc(b1-4)GlcNAc
# Procedure, shortened: as §1
# [13] = molecular target: Gal(b1-4)GlcNAc(b1-3)Gal(b1-4)GlcNAc(b1-3)GalNAc
# Procedure, shortened: as §1
# [14] = molecular target: Gal(b1-4)GlcNAc(b1-3)Gal(b1-4)GlcNAc(b1-3)[Gal(b1-4)GlcNAc(b1-3)Gal(b1-4)GlcNAc(b1-6)]GalNAc
# Procedure, shortened: as §1
# [15] = molecular target: Gal(b1-4)GlcNAc(b1-3)Gal(b1-4)GlcNAc(b1-6)[Gal(b1-3)]GalNAc
# Procedure, shortened: as §1
# [16] = molecular target: Gal(b1-4)GlcNAc(b1-3)Gal(b1-4)[Fuc(a1-3)]GlcNAc(b1-3)Gal(b1-4)[Fuc(a1-3)]GlcNAc
# Procedure, shortened: as §1
# [17] = molecular target: Gal(b1-4)GlcNAc(b1-3)GalNAc
# Procedure, shortened: as §1
# [18] = molecular target: Gal(b1-4)GlcNAc(b1-3)[Fuc(a1-3)GlcNAc(b1-6)]Gal(b1-4)Glc
# Procedure, shortened: as §1
# [19] = molecular target: Gal(b1-4)GlcNAc(b1-3)[Gal(b1-4)GlcNAc(b1-6)]Gal(b1-4)GlcNAc
# Procedure, shortened: as §1
# [20] = molecular target: Gal(b1-4)GlcNAc(b1-3)[GlcNAc(b1-6)]Gal(b1-4)GlcNAc
# Procedure, shortened: as §1
# [21] = molecular target: Gal(b1-4)GlcNAc(b1-6)Gal(b1-4)GlcNAc
# Procedure, shortened: as §1
# [22] = molecular target: Gal(b1-4)GlcNAc(b1-6)GalNAc
# Procedure, shortened: as §1
# [23] = molecular target: Gal(b1-4)GlcNAc(b1-6)[Gal(b1-3)]GalNAc
# Procedure, shortened: as §1
# [24] = molecular target: Gal(b1-4)GlcNAc(b1-6)[Gal(b1-4)GlcNAc(b1-3)]GalNAc
# Procedure, shortened: as §1
# Gal(b1-4)GlcNAc6P = molecular target: Gal(b1-4)GlcNAc6P
# Procedure, shortened: as §1
# Gal(b1-6)Gal = molecular target: Gal(b1-6)Gal
# Procedure, shortened: as §1
# Gal3S(b1-3)GalNAc = molecular target: Gal3S(b1-3)GalNAc
# Procedure, shortened: as §1
# Gal3S(b1-3)GlcNAc = molecular target: Gal3S(b1-3)GlcNAc
# Procedure, shortened: as §1
# [25] = molecular target: Gal3S(b1-3)[Fuc(a1-4)]GlcNAc
# Procedure, shortened: as §1
# Gal3S(b1-4)Glc = molecular target: Gal3S(b1-4)Glc
# Procedure, shortened: as §1
binder,measurement,setting,value
B1,glycan array binding signal (z-score),[1],0.365
same,glycan array binding signal (z-score),[2],0.154
same,glycan array binding signal (z-score),[3],4.44
same,glycan array binding signal (z-score),[4],-0.253
same,glycan array binding signal (z-score),[5],0.898
same,glycan array binding signal (z-score),[6],-0.286
same,glycan array binding signal (z-score),[7],0.148
same,glycan array binding signal (z-score),[8],-0.098
same,glycan array binding signal (z-score),[9],-0.569
same,glycan array binding signal (z-score),[10],-0.143
same,glycan array binding signal (z-score),[11],-0.123
same,glycan array binding signal (z-score),[12],0.8
same,glycan array binding signal (z-score),[13],1.83
same,glycan array binding signal (z-score),[14],2.83
same,glycan array binding signal (z-score),[15],0.543
same,glycan array binding signal (z-score),[16],-0.136
same,glycan array binding signal (z-score),[17],-0.314
same,glycan array binding signal (z-score),[18],-0.271
same,glycan array binding signal (z-score),[19],-0.654
same,glycan array binding signal (z-score),[20],-0.271
same,glycan array binding signal (z-score),[21],-0.058
same,glycan array binding signal (z-score),[22],-0.122
same,glycan array binding signal (z-score),[23],-0.496
same,glycan array binding signal (z-score),[24],0.112
same,glycan array binding signal (z-score),Gal(b1-4)GlcNAc6P,-0.289
same,glycan array binding signal (z-score),Gal(b1-6)Gal,0.175
same,glycan array binding signal (z-score),Gal3S(b1-3)GalNAc,-0.213
same,glycan array binding signal (z-score),Gal3S(b1-3)GlcNAc,-0.157
same,glycan array binding signal (z-score),[25],-0.382
same,glycan array binding signal (z-score),Gal3S(b1-4)Glc,-0.251
